# Measured values from the BET-seq Pho4 binding data (Le et al. 2018).
# Some of the results follow. These are noisy estimates, calculated here from bound and input reads.
# Target: T1, Pho4 (S. cerevisiae) (UniProt P07270)
# T1 sequence: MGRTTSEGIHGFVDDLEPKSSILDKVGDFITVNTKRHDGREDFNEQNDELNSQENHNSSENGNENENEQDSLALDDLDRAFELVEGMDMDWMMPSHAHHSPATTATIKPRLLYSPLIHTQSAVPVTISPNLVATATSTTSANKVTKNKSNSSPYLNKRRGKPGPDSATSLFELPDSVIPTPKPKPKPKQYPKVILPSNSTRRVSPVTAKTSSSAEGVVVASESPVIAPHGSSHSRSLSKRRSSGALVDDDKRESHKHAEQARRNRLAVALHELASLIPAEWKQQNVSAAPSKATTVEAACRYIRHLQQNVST
# Assay: relative binding free energy (BET-seq); higher = weaker binding
# Conditions: reference: library average
row,Sequence,relative binding free energy [kcal/mol]
1,GATTTCACGTGCGGGA,0.38
2,GATGACACGTGGGGTG,-0.13
3,CGGTACACGTGAGTTG,0.29
4,CTGATCACGTGTGGGG,0.24
5,GAGTTCACGTGAGGAG,0.48
6,TTTAGCACGTGAGGTG,0.1
7,ATAGGCACGTGTTTGG,-0.21
8,GATATCACGTGGGCGG,0.08
9,GGATGCACGTGGATGA,-0.08
10,CAGGTCACGTGTTGGC,0.06
11,AACTGCACGTGGGTAG,-0.18
12,TTTCTCACGTGTTGAG,0.3
13,GTCTACACGTGATTGT,0.17
14,TATGGCACGTGAGGAG,0.14
15,GGCTTCACGTGGCGGA,0.18
16,TTGGGCACGTGTGATG,0
17,ATATTCACGTGGGGGC,0.22
18,ATGATCACGTGAGGTA,0.31
19,GGGGACACGTGAGTGG,0.24
20,GTTGACACGTGAGAGG,0.28
21,TTTCTCACGTGAGCTT,0.32
22,ACATTCACGTGTTGTT,0.25
23,TGGTTCACGTGGCGTT,0.21
24,GGATTCACGTGGGCCT,0.15
25,TAGGGCACGTGAGAAT,0.2
26,TCATTCACGTGATGGG,0.55

row,Sequence,relative binding free energy [kcal/mol]
1,AAGGGCACGTGTTAAT,-0.08
2,GGTTCCACGTGGGAGG,0.08
3,CGTGCCACGTGGCGGG,-0.24
4,AGTGTCACGTGGCTTA,-0.11
5,GGGGTCACGTGAATGT,0.38
6,AGGGTCACGTGGTCTA,0.02
7,GATGGCACGTGTAAAT,0.1
8,CAGTGCACGTGGGTGT,-0.24
9,TGCTGCACGTGCGTGA,-0.07
10,TGGGCCACGTGCCGTG,-0.17
11,AGAGACACGTGGGTCT,-0.14
12,CGATTCACGTGGGGCG,0.15
13,GCGTGCACGTGATTAT,0.21
14,GTTGTCACGTGCGCAG,0
15,AGTGACACGTGTGAGA,0.12
16,CGTGGCACGTGTCGTC,0.04
17,TGTTGCACGTGACGTT,-0.01
18,TGCTGCACGTGAAAGT,0.15
19,AGCTGCACGTGGGTGG,-0.15
20,TATGCCACGTGTGGGT,-0.08
21,AGCTTCACGTGATATG,0.31
22,AGAGGCACGTGTGGTT,-0.02
23,AGGCTCACGTGATGGT,0.26
24,AGCTACACGTGGTGGG,-0.03
25,CTAGACACGTGTGTTG,-0.04
26,GGTGGCACGTGAGTTC,0.2

row,Sequence,relative binding free energy [kcal/mol]
1,ATTATCACGTGAGAGG,0.35
2,TTTCGCACGTGGAGTA,0.05
3,GTAAGCACGTGCGTGT,-0.15
4,TTTGGCACGTGTTATG,-0.01
5,GGATACACGTGTGGGT,0.11
6,AGTCGCACGTGATCGG,0.15
7,TAACGCACGTGGGTTA,-0.23
8,TCGCTCACGTGTGTTG,0.23
9,AAGGTCACGTGTGGGA,0.18
10,TCTTGCACGTGCTTTT,-0.01
11,GCGATCACGTGATTGT,0.5
12,GTGAGCACGTGTTGCA,-0.1
13,ATTGTCACGTGTTACA,0.06
14,ATTCACACGTGTATGG,0.16
15,GAGGTCACGTGTATTA,0.36
16,AAGTTCACGTGCAGTG,0.22
17,GTTTGCACGTGGGTAA,-0.01
18,GAGGACACGTGAGGTC,0.32
19,TAAGTCACGTGGCATA,0.11
20,AGTGTCACGTGACCGG,0.15
21,TGGAGCACGTGTCTGT,-0.2
22,TGGAGCACGTGTGGGC,-0.04
23,AGGGTCACGTGATAGG,0.23
24,CGAGACACGTGGTGTT,0.01
25,AAGTTCACGTGAGAGG,0.27
26,CCGGGCACGTGATGGT,0.01

row,Sequence,relative binding free energy [kcal/mol]
1,CGTCGCACGTGGTAGG,0.01
2,GGGAACACGTGCGAGT,0.07
3,ATAGTCACGTGAGTCG,0.12
4,GGGGACACGTGGTGTC,-0.03
5,TAGGTCACGTGATCTG,0.1
6,ATGGACACGTGGATTG,0.02
7,GGCTTCACGTGAGTAG,0.5
8,TGGCACACGTGATTGG,0.15
9,GTTTACACGTGTGCGC,0.28
10,GTTCGCACGTGGGTTT,-0.12
11,CTTTTCACGTGGGCTT,0.19
12,AGGGTCACGTGGAAGA,0.01
13,TTAGGCACGTGTTATT,-0.18
14,TGGTACACGTGAGTGT,0.24
15,TGTGGCACGTGACGCT,-0.05
16,TGTGGCACGTGGCAAG,-0.1
17,AATTACACGTGGTTTT,-0.01
18,AATGCCACGTGGTTGA,0.01
19,AGTAGCACGTGGATAT,-0.03
20,GTGGCCACGTGGATAG,-0.1
21,TTAATCACGTGTCGAT,0.09
22,AAGTCCACGTGATGTG,0.21
23,TGGGACACGTGGGGCG,-0.12
24,TGAGTCACGTGCTGGC,0.13
25,GAAATCACGTGTCGGG,0.23
26,ATTAGCACGTGGGGTA,-0.3

row,Sequence,relative binding free energy [kcal/mol]
1,TTAAACACGTGTGGCT,0.03
2,AAGGACACGTGCGTGT,-0.03
3,TTTATCACGTGGAGTT,0.21
4,TAGTGCACGTGTGAGC,-0.04
5,AGTAACACGTGTTGTA,-0.1
6,TGAGGCACGTGGATAG,-0.16
7,TGTGACACGTGTATTT,0
8,CGGTTCACGTGTTTCG,0.3
9,TCGGGCACGTGGTTTT,-0.06
10,GGTTGCACGTGTAATA,-0.02
11,GGGTGCACGTGTATAC,-0.05
12,GGGCGCACGTGGGGCC,-0.17
13,GTGTGCACGTGTGTCA,0.03
14,GACGTCACGTGAGGGA,0.31
15,AAGTACACGTGGGAGG,-0.15
16,GTCAACACGTGGGGTC,0.13
17,ATTGCCACGTGGCGGT,-0.14
18,ATTGTCACGTGTCCTT,0.06
19,GGTGTCACGTGAGGTA,0.21
20,TGTGACACGTGGCGAT,-0.19
21,TTTAACACGTGAGAGT,0.32
22,TGGTACACGTGAAGGG,0.21
23,ACGGTCACGTGGAATA,0.42
24,AGGTTCACGTGGGGAT,0.18
25,GGCTGCACGTGATTGT,0.31
26,GTCAGCACGTGTAGAG,0.18

row,Sequence,relative binding free energy [kcal/mol]
1,TGAGTCACGTGGCTAT,0.07
2,TGAGTCACGTGTTTTG,0.08
3,TCTGCCACGTGTGGTT,0.05
4,TATCACACGTGGGGAT,0
5,TAGGGCACGTGCTAGG,-0.23
6,AGCTACACGTGTTGGT,0.11
7,ACTAGCACGTGGGAGG,-0.21
8,TGACACACGTGGAGGG,-0.01
9,GTTAGCACGTGGTACA,0
10,TTGGACACGTGTAGCG,0.01
11,TATAGCACGTGGCATG,-0.16
12,TGGGACACGTGGGAGT,-0.07
13,GTGTGCACGTGGGCTG,-0.19
14,AGGTTCACGTGGATGG,0.24
15,TCGTCCACGTGGGGGT,-0.13
16,GTGTACACGTGGGGCT,-0.01
17,TTAATCACGTGTGAGG,0.28
18,CGATTCACGTGGAAGT,0.38
19,GTTGGCACGTGGGCCG,-0.11
20,ATTGTCACGTGACAGG,0.26
21,AATAGCACGTGGGTTA,-0.31
22,CGAATCACGTGGTAGG,0.07
23,AAGTTCACGTGGGCCT,0.24
24,TGTCGCACGTGAATAG,0.29
25,AACAACACGTGGGTGG,-0.16
26,CGTGTCACGTGGTTGG,0.09

row,Sequence,relative binding free energy [kcal/mol]
1,TCGGGCACGTGTGCGG,-0.19
2,TATCGCACGTGGGATA,0.02
3,TTTTACACGTGTGCGG,0.15
4,CGTGTCACGTGATGTG,0.13
5,GTAGCCACGTGGAGTG,-0.04
6,TTTGTCACGTGGGAGT,0.04
7,TATTTCACGTGTCCTG,0.56
8,AAAGTCACGTGGAATG,0.2
9,GTTGCCACGTGTGATG,0.14
10,GTGAGCACGTGCGTGT,-0.01
11,TGCGTCACGTGTTAGG,0.02
12,CGGTGCACGTGTGGGC,0.02
13,GCGGGCACGTGTGCGT,-0.14
14,TGGGACACGTGAGAGA,0.21
15,TGGCACACGTGGGTAT,-0.16
16,GAGAGCACGTGGGGAT,-0.11
17,GTCTGCACGTGGTACT,-0.02
18,GACGGCACGTGGGAGC,-0.03
19,AAGGTCACGTGGGAAG,0.01
20,TGTTCCACGTGTTGTC,0.02
21,CGTGACACGTGGCGGG,-0.15
22,GGTCTCACGTGGTATG,0.18
23,GTTTGCACGTGGGAAT,-0.01
24,TGGAACACGTGAGTGT,0.3
25,TTAGCCACGTGAGGGG,0.23
26,TACGGCACGTGTAGGT,-0.11

row,Sequence,relative binding free energy [kcal/mol]
1,GAAAACACGTGTTTTT,0.11
2,TTGTCCACGTGGAGGC,0.04
3,TCTAGCACGTGTATGT,-0.07
4,AGTTCCACGTGGTTTG,-0.1
5,GACTGCACGTGGGTAT,-0.12
6,GTAAGCACGTGAGGAG,0.25
7,ATAGGCACGTGTCCGG,-0.11
8,GGGTCCACGTGGGTTC,-0.16
9,CGATACACGTGGGGTC,0.06
10,TGGCGCACGTGGAGGA,-0.04
11,TGTGACACGTGTAATG,0.05
12,GGGGTCACGTGACTGG,0.24
13,CAGTGCACGTGATTTG,0.05
14,ACGTGCACGTGGTGTG,-0.19
15,CTTATCACGTGAAGGT,0.36
16,TGTTGCACGTGCTCTA,-0.13
17,TAGGTCACGTGGTATC,0.1
18,GCAATCACGTGGGGTT,-0.12
19,TATATCACGTGTTCTT,0.02
20,GTTGTCACGTGTGTGA,0.25
21,AGGGCCACGTGTTTGG,-0.13
22,GATGACACGTGCTTGG,0.13
23,CTATACACGTGTTTTG,-0.03
24,TTCATCACGTGAGCGG,0.39
25,AGGAGCACGTGTGAGG,0
26,ATGGACACGTGGGAGC,0.03

row,Sequence,relative binding free energy [kcal/mol]
1,ATTTGCACGTGATGTG,0.07
2,CTCGGCACGTGAGGAG,0.14
3,TAAAACACGTGGTTAG,-0.05
4,TTTTACACGTGTGTAA,0.22
5,TTTTACACGTGTACTA,0.12
6,AGTATCACGTGGTCAT,-0.06
7,ATGGACACGTGTAAGT,0.16
8,TTTCGCACGTGCAGTT,0
9,ATTTGCACGTGTAGGG,-0.02
10,GGTTGCACGTGTAACG,0.12
11,ATTGTCACGTGGCAAG,0.09
12,GATAGCACGTGTGGAG,0.07
13,TGGCGCACGTGTGGCG,-0.12
14,TAACGCACGTGTGGAG,0.08
15,TGTCTCACGTGTATAG,0.22
16,ATGGGCACGTGGCGTG,-0.14
17,TATTGCACGTGGCATA,-0.24
18,TGTTCCACGTGATCGT,0.14
19,TTAGGCACGTGTGAAA,-0.12
20,TGCGGCACGTGTCGTT,-0.16
21,ATAGTCACGTGTATGA,0.07
22,ATCTTCACGTGGCGTG,0.11
